This passage reports Kd results from patent US20260132214A1 (JECHO LABORATORIES, published 2026).

In assay [1] the target is T1, Glypican 3 Protein, Human, Recombinant (His Tag) (Sino Biological, Cat #10088-H08H) (human, UniProt P51654 25-559).
T1 construct: Bought recombinant protein; also called Hu-GPC3 (10088-H08H); human GPC3; not shown: His tag
The experiment in a line: Octet QKe BLI, antibody on AHC probe, antigen in solution, 1:1 fit. In general terms: Biolayer interferometry detects binding as a change in optical thickness at a sensor tip.

For the next assay, the target named is Cy-GPC3 (GP3-C5225) (Cy (so in the source)). Described as above.

A word on the Kd: it is a measure of binding affinity in units of concentration.

T1 sequence (P51654 25-559 limits assumed): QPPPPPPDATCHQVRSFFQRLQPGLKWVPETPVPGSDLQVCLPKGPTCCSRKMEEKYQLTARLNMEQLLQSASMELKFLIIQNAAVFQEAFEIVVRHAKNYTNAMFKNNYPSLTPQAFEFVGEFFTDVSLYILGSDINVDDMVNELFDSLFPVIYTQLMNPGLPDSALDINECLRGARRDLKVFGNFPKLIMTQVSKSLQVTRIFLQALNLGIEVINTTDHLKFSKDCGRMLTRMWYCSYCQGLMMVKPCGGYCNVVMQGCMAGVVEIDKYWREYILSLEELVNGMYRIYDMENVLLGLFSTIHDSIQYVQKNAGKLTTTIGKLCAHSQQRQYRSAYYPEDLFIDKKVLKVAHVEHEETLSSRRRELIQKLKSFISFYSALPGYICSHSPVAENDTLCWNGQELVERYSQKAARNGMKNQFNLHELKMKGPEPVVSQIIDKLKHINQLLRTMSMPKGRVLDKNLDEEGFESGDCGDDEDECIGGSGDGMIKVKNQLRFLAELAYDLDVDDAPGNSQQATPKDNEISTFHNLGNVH

B1: P17 anti-GPC3 scFv-Fc (Fc fusion)
VH: [no letters for about 100 residues]EAPYSSGWSHYYYGMDVWGQGTTVTVSS
VL: QSVLTQPPSVSGAPGQRVTISCTGSSSGYDVHWYQQLPGRAPKLLIYGSNNRPSGVPDRFSGSNSGTSASLAITGLQAEDEADYYCQSYDSSLNAIFGGGTKLTVL
notes: scFv-Fc, human IgG1 constant regions
Take B1: the Kd in assay [1] amounted to 9.1 nM; in the assay with Cy-GPC3 (GP3-C5225), 6.01 nM.

B2: 59 anti-GPC3 scFv-Fc (Fc fusion)
VH: [no letters for about 100 residues]ASGRVTDAFDIWGQGTMVTVSS
VL: QAVLTQPSSLSASPGASASLTCTLRSGINVVPYRIYWYQQKPGSPPQFLLNYRSDSDNYQGSGVPSRFSGSKDTSANAGILLISGLQSEDEADYYCLTWHSDSWVFGGGTKLTVL
notes: as for B1
Take B2: the Kd in assay [1] worked out at 11.3 nM; with Cy-GPC3 (GP3-C5225) it was 6.49 nM.
